# Reference: the supplement of paper PMC8728848
# This is one part of the list.
# Tests used:
# Test in all cases: glycan array binding signal (z-score within array); higher = stronger binding
# Conditions in all cases: glycan notation: IUPAC condensed, linker removed; mutation: R144S
# [1] = target: GlcNAc(b1-3)Gal(b1-4)GlcNAc(b1-3)Gal(b1-4)GlcNAc
# How it was run: (§1)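 The binding signal is a Z-score computed within each array. Data were drawn from 3228 arrays in the Consortium for Functional Glycomics database, restricted to those with a known protein sequence. Scores were averaged over arrays of the same protein sequence at different concentrations or buffers, and over linkers, and negative values can be taken as non-binding.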
# GlcNAc(b1-3)GalNAc = target: GlcNAc(b1-3)GalNAc
# How it was run: as §1
# GlcNAc(b1-3)Man = target: GlcNAc(b1-3)Man
# How it was run: as §1
# [2] = target: GlcNAc(b1-3)[GlcNAc(b1-4)][GlcNAc(b1-6)]GlcNAc
# How it was run: as §1
# [3] = target: GlcNAc(b1-3)[GlcNAc(b1-6)]Gal(b1-4)GlcNAc
# How it was run: as §1
# [4] = target: GlcNAc(b1-3)[GlcNAc(b1-6)]GalNAc
# How it was run: as §1
# [5] = target: GlcNAc(b1-4)Gal(b1-4)GlcNAc
# How it was run: as §1
# GlcNAc(b1-4)GlcNAc = target: GlcNAc(b1-4)GlcNAc
# How it was run: as §1
# [6] = target: GlcNAc(b1-4)GlcNAc(b1-4)GlcNAc
# How it was run: as §1
# [7] = target: GlcNAc(b1-4)GlcNAc(b1-4)GlcNAc(b1-4)GlcNAc(b1-4)GlcNAc
# How it was run: as §1
# [8] = target: GlcNAc(b1-4)GlcNAc(b1-4)GlcNAc(b1-4)GlcNAc(b1-4)GlcNAc(b1-4)GlcNAc
# How it was run: as §1
# [9] = target: GlcNAc(b1-4)[GlcNAc(b1-6)]GalNAc
# How it was run: as §1
# [10] = target: GlcNAc(b1-6)Gal(b1-4)GlcNAc
# How it was run: as §1
# GlcNAc(b1-6)GalNAc = target: GlcNAc(b1-6)GalNAc
# How it was run: as §1
# GlcNAc3Prop(b1-4)GlcNAc = target: GlcNAc3Prop(b1-4)GlcNAc
# How it was run: as §1
# [11] = target: GlcNAc6S(b1-3)Gal(b1-4)GlcNAc
# How it was run: as §1
# Kdn(a2-3)Gal(b1-3)GalNAc = target: Kdn(a2-3)Gal(b1-3)GalNAc
# How it was run: as §1
# Kdn(a2-3)Gal(b1-3)GlcNAc = target: Kdn(a2-3)Gal(b1-3)GlcNAc
# How it was run: as §1
# Kdn(a2-3)Gal(b1-4)Glc = target: Kdn(a2-3)Gal(b1-4)Glc
# How it was run: as §1
# Kdn(a2-3)Gal(b1-4)GlcNAc = target: Kdn(a2-3)Gal(b1-4)GlcNAc
# How it was run: as §1
# [12] = target: Kdn(a2-3)Gal(b1-4)[Fuc(a1-3)]GlcNAc
# How it was run: as §1
# Kdn(a2-6)Gal(b1-4)GlcNAc = target: Kdn(a2-6)Gal(b1-4)GlcNAc
# How it was run: as §1
# [13] = target: Man(a1-2)Man(a1-2)Man(a1-3)Man
# How it was run: as §1
# [14] = target: Man(a1-2)Man(a1-2)Man(a1-6)[Man(a1-3)]Man
# How it was run: as §1
# Man(a1-2)Man(a1-3)Man = target: Man(a1-2)Man(a1-3)Man
# How it was run: as §1
# [15] = target: Man(a1-2)Man(a1-3)[Man(a1-2)Man(a1-6)]Man
# How it was run: as §1
# [16] = target: Man(a1-2)Man(a1-3)[Man(a1-2)Man(a1-6)]Man(a1-6)[Man(a1-2)Man(a1-2)Man(a1-3)]Man
# How it was run: as §1
# [17] = target: Man(a1-2)Man(a1-3)[Man(a1-2)Man(a1-6)]Man(a1-6)[Man(a1-2)Man(a1-2)Man(a1-3)]Man(b1-4)GlcNAc(b1-4)GlcNAc
# How it was run: as §1
# [18] = target: Man(a1-2)Man(a1-3)[Man(a1-6)]Man(a1-6)[Man(a1-2)Man(a1-3)]Man(b1-4)GlcNAc(b1-4)GlcNAc
# How it was run: as §1
# [19] = target: Man(a1-2)Man(a1-6)[Man(a1-3)]Man(a1-6)[Man(a1-2)Man(a1-2)Man(a1-3)]Man
# How it was run: as §1
# [20] = target: Man(a1-2)Man(a1-6)[Man(a1-3)]Man(a1-6)[Man(a1-2)Man(a1-2)Man(a1-3)]Man(b1-4)GlcNAc(b1-4)GlcNAc
# How it was run: as §1
# Man(a1-3)[Man(a1-6)]Man = target: Man(a1-3)[Man(a1-6)]Man
# How it was run: as §1
# [21] = target: Man(a1-3)[Man(a1-6)]Man(a1-6)[Man(a1-2)Man(a1-3)]Man(b1-4)GlcNAc(b1-4)GlcNAc
# How it was run: as §1
# [22] = target: Man(a1-3)[Man(a1-6)]Man(a1-6)[Man(a1-3)]Man
# How it was run: as §1
# [23] = target: Man(a1-3)[Man(a1-6)]Man(a1-6)[Man(a1-3)]Man(b1-4)GlcNAc(b1-4)GlcNAc
# How it was run: as §1
# [24] = target: Man(a1-3)[Man(a1-6)]Man(b1-4)GlcNAc(b1-4)GlcNAc
# How it was run: as §1
# Man(a1-6)Man = target: Man(a1-6)Man
# How it was run: as §1
# Man(b1-4)GlcNAc = target: Man(b1-4)GlcNAc
# How it was run: as §1
# Neu5Ac(a2-3)Gal = target: Neu5Ac(a2-3)Gal
# How it was run: as §1
# [25] = target: Neu5Ac(a2-3)Gal(b1-3)GalNAc
# How it was run: as §1
# [26] = target: Neu5Ac(a2-3)Gal(b1-3)GalNAc(b1-3)Gal(a1-4)Gal(b1-4)Glc
# How it was run: as §1
# [27] = target: Neu5Ac(a2-3)Gal(b1-3)GalNAc(b1-4)[Neu5Ac(a2-3)]Gal(b1-4)Glc
# How it was run: as §1
# [28] = target: Neu5Ac(a2-3)Gal(b1-3)GalNAc6S
# How it was run: as §1
# [29] = target: Neu5Ac(a2-3)Gal(b1-3)GlcNAc
# How it was run: as §1
# [30] = target: Neu5Ac(a2-3)Gal(b1-3)GlcNAc(b1-2)Man(a1-3)[Neu5Ac(a2-3)Gal(b1-3)GlcNAc(b1-2)Man(a1-6)]Man(b1-4)GlcNAc(b1-4)GlcNAc
# How it was run: as §1
binder,measurement,setting,value
"Gal 3 (Homo sapiens), P17931 (protein) MADNFSLHDALSGSGNPNPQGWPGAWGNQPAGAGGYPGASYPGAYPGQAPPGAYPGQAPPGAYHGAPGAYPGAPAPGVYPGPPSGPGAYPSSGQPSAPGAYPATGPYGAPAGPLIVPYNLPLPGGVVPRMLITILGTVKPNANSILDFQRGNDVAFHFNPRFNENNRRVIVCNTKLDNNWGREERQSVFPFESGKPFKIQVLVEPDHFKVAVNDAHLLQYNHRVKKLNEISKLGISGDIDLTSASYTMI",glycan array binding signal (z-score),[1],1.29
same,glycan array binding signal (z-score),GlcNAc(b1-3)GalNAc,-0.357
same,glycan array binding signal (z-score),GlcNAc(b1-3)Man,-0.359
same,glycan array binding signal (z-score),[2],-0.358
same,glycan array binding signal (z-score),[3],-0.352
same,glycan array binding signal (z-score),[4],-0.361
same,glycan array binding signal (z-score),[5],-0.364
same,glycan array binding signal (z-score),GlcNAc(b1-4)GlcNAc,-0.359
same,glycan array binding signal (z-score),[6],-0.362
same,glycan array binding signal (z-score),[7],-0.363
same,glycan array binding signal (z-score),[8],-0.326
same,glycan array binding signal (z-score),[9],-0.359
same,glycan array binding signal (z-score),[10],-0.361
same,glycan array binding signal (z-score),GlcNAc(b1-6)GalNAc,-0.36
same,glycan array binding signal (z-score),GlcNAc3Prop(b1-4)GlcNAc,-0.361
same,glycan array binding signal (z-score),[11],-0.352
same,glycan array binding signal (z-score),Kdn(a2-3)Gal(b1-3)GalNAc,-0.361
same,glycan array binding signal (z-score),Kdn(a2-3)Gal(b1-3)GlcNAc,-0.358
same,glycan array binding signal (z-score),Kdn(a2-3)Gal(b1-4)Glc,-0.361
same,glycan array binding signal (z-score),Kdn(a2-3)Gal(b1-4)GlcNAc,-0.357
same,glycan array binding signal (z-score),[12],-0.352
same,glycan array binding signal (z-score),Kdn(a2-6)Gal(b1-4)GlcNAc,-0.361
same,glycan array binding signal (z-score),[13],-0.356
same,glycan array binding signal (z-score),[14],-0.356
same,glycan array binding signal (z-score),Man(a1-2)Man(a1-3)Man,-0.348
same,glycan array binding signal (z-score),[15],-0.354
same,glycan array binding signal (z-score),[16],-0.358
same,glycan array binding signal (z-score),[17],-0.349
same,glycan array binding signal (z-score),[18],-0.356
same,glycan array binding signal (z-score),[19],-0.356
same,glycan array binding signal (z-score),[20],-0.355
same,glycan array binding signal (z-score),Man(a1-3)[Man(a1-6)]Man,-0.354
same,glycan array binding signal (z-score),[21],-0.36
same,glycan array binding signal (z-score),[22],-0.354
same,glycan array binding signal (z-score),[23],-0.351
same,glycan array binding signal (z-score),[24],-0.363
same,glycan array binding signal (z-score),Man(a1-6)Man,-0.355
same,glycan array binding signal (z-score),Man(b1-4)GlcNAc,-0.36
same,glycan array binding signal (z-score),Neu5Ac(a2-3)Gal,-0.352
same,glycan array binding signal (z-score),[25],-0.362
same,glycan array binding signal (z-score),[26],-0.359
same,glycan array binding signal (z-score),[27],-0.356
same,glycan array binding signal (z-score),[28],-0.365
same,glycan array binding signal (z-score),[29],-0.358
same,glycan array binding signal (z-score),[30],-0.359
